Among all 120,000 compounds or so, about 5,300 (4.4%) were called active. The shares of active, inactive and inconclusive entries below differ from those in the screen. Calls come from the whole dose curve; as a rule, active = well fitted inhibition curve with a large enough effect; inconclusive = small, poorly fitted or top-dose-only effect; inactive = no such curve, though single readings can be large or run the other way. A potency beside an inconclusive call is a rough fit, not a confirmed value.
assay: qHTS Primary assay for Inhibitors of Plasmodium falciparum Dd2 growth in vitro; note: nearly all actives have a fitted effect of over 65% in size; details: P. falciparum Dd2 growth, SYBR Green, 72 h; series mostly up to 28.9 µM
Procedure, shortened: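 Readout: SYBR Green fluorescence, 485 nm excitation, 535 nm emission, after ~16 h lysis at 37C. Before that, Dd2-infected red cells (2.5% hematocrit) grew 72 h with compound, 29 uM top final concentration.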
Potency is the fitted concentration of half-maximal effect; tags give direction and shape of the fitted curve.

Q: With Cc1nc(CN2Cc3nc(-c4cc5ccccc5o4)ccc3OCC2=O)cs1 as the compound, how does the Potency read?
A: inconclusive: 31.6 µM [inhibitor, single point]

Q: With COc1cccc(CN2CCCC3(CCN(C(=O)CNC(N)=O)C3)C2=O)c1OC (centres undefined) as the compound, how does the Potency read?
A: inactive

Q: With O=C1Nc2ccccc2CC12CCN(Cc1cncs1)C2 (centres undefined) as the compound, how does the Potency read?
A: inconclusive: 31.6 µM [inhibitor, single point]

Q: For Cc1ccc(CN2CC[C@@H]3C(=O)NCCCCCCN(Cc4ccncc4)[C@@H]3C2)o1, which Potency is on record?
A: inconclusive: 1.12 µM [inhibitor, partial curve]

Q: For COc1ccc(-c2nc(C(=O)N3CCN(c4ncccn4)CC3)n3ccccc23)cc1, which Potency is on record?
A: inconclusive: 3.16 µM [inhibitor, full curve]

Q: With O=C(Nc1sc2c(c1C(=O)NCc1ccco1)CCCC2)c1cc(=O)c2ccccc2o1 as the compound, how does the Potency read?
A: inconclusive: 1.12 µM [inhibitor, full curve, poor fit]

Q: For CCCCc1cn(C[C@H]2CC3CCN2C[C@@H]3C(=O)NCc2ccc3c(c2)OCO3)nn1 (some centres undefined), which Potency is on record?
A: inactive

Q: Which Potency does the source give for Cc1ccc(-n2c(C3CCN(C(=O)Cc4ccccc4)CC3)n[nH]c2=O)cc1 here?
A: inconclusive: 17.8 µM [inhibitor, single point]

Q: Which Potency does the source give for CCOC(=O)C1(Cc2ccc(Cl)cc2)CCNCC1 here?
A: active: 3.55 µM

Q: With COc1ccc(CN2CC3(CCN(S(=O)(=O)Cc4ccccc4)CC3)C2=O)cc1 as the compound, how does the Potency read?
A: inconclusive: 6.31 µM [inhibitor, partial curve, poor fit]

Q: For O=C(CCC[C@H]1NC[C@@H]2C[C@H]1CN(Cc1ccccc1)C2)Nc1cccc(F)c1, which Potency is on record?
A: inconclusive: 2.82 µM [inhibitor, single point]

Q: For CCC(=O)N1CCc2cc(Br)cc(S(=O)(=O)CCC(=O)NCc3ccc(Cl)cc3)c21, which Potency is on record?
A: inconclusive: 17.8 µM [inhibitor, single point]

Q: For CCN(C(=O)C1CCCN(S(=O)(=O)c2c(C)noc2/C=C/N(C)C)C1)c1cccc(C)c1 (centres undefined), which Potency is on record?
A: inconclusive: 17.8 µM [inhibitor, single point]

Q: Which Potency does the source give for CCN(c1ccccc1)c1nnc(NC(=O)Nc2ccccc2F)s1 here?
A: inconclusive: 11.2 µM [inhibitor, partial curve, poor fit]

Q: With O=C(NCc1ccco1)c1ccc2c(c1)N(Cc1ccc(Cl)cc1)C(=O)c1ccccc1S2=O (centres undefined) as the compound, how does the Potency read?
A: inconclusive: 17.8 µM [inhibitor, single point]

Q: Which Potency does the source give for COC(=O)[C@@H]1Cc2c([nH]c3ccccc23)[C@@H]2C[C@@H](NC(C)C)C[C@@H](c3ccc(F)cc3)N12 here?
A: inconclusive: 3.55 µM [inhibitor, full curve]

Q: For CCc1nc2c(c(-c3ccc(OC)cc3)n1)CCN(C(=O)c1ccc(C(F)(F)F)cc1)CC2, which Potency is on record?
A: inconclusive: 10 µM [inhibitor, partial curve]

Q: For CC(NC(=O)c1noc(-c2ccc(F)cc2)n1)c1ccc(F)cc1 (centres undefined), which Potency is on record?
A: inactive

Q: With COC(=O)c1scc(-c2ccc(C)cc2)c1S(=O)(=O)N1CCN(c2cccc(OC)c2)CC1 as the compound, how does the Potency read?
A: inconclusive: 11.2 µM [inhibitor, single point]

Q: Which Potency does the source give for O=C(NCc1ccc(Cl)cc1)c1cccn2cncc12 here?
A: inconclusive: 20 µM [inhibitor, single point]

Q: For CCc1nnc(SC(CC)C(=O)Nc2cccc(OC)c2)c2cc3oc(C)cc3n12 (centres undefined), which Potency is on record?
A: inconclusive: 11.2 µM [inhibitor, single point]

Q: With Cc1ccc(C(=O)N2[C@H]3CC[C@@H]2c2cnc(-c4ccc(F)cc4)nc2C3)cn1 as the compound, how does the Potency read?
A: inconclusive: 2.51 µM [inhibitor, single point]

Q: With CCc1ccc(CN(Cc2ccco2)c2cnc(S(C)(=O)=O)nc2C(=O)Nc2ccccc2Cl)cc1 as the compound, how does the Potency read?
A: inconclusive: 12.6 µM [inhibitor, partial curve, poor fit]

Q: With CCC[C@H]1CN(CC(=O)NCCc2ccc(F)cc2)C[C@@H]1NC(C)=O as the compound, how does the Potency read?
A: inconclusive: 14.1 µM [inhibitor, partial curve, poor fit]

Q: Which Potency does the source give for O=C(NC[C@H]1OC[C@@H](NCc2ccccc2F)[C@@H]1O)c1cccs1 here?
A: inactive

Q: For CN(Cc1ccccc1)C(=O)Nc1ccc2c(c1)N(C)C(=O)c1ccccc1S2, which Potency is on record?
A: inconclusive: 12.6 µM [inhibitor, single point]

Q: For CN(Cc1ccon1)Cc1ccccc1OCC(O)CN1CCCCC1 (centres undefined), which Potency is on record?
A: inconclusive: 10 µM [inhibitor, partial curve, poor fit]

Q: Which Potency does the source give for CCN1C(=O)N(Cc2cccc(OC)c2)C(=O)C12CCN(Cc1nc3ccccc3n1C)CC2 here?
A: inconclusive: 10 µM [inhibitor, single point]

Q: With CN1CCC(NC[C@H]2O[C@H](Cc3cc(-c4ccccc4)on3)CC[C@@H]2O)CC1 as the compound, how does the Potency read?
A: inconclusive: 3.55 µM [inhibitor, single point]

Q: For Cc1ccc(NC(=O)N2CCC(OC3CCN(S(C)(=O)=O)CC3)CC2)cc1C, which Potency is on record?
A: inactive

Q: For COc1ccc2cc(C3CN(Cc4nc(C(N)=O)no4)CCO3)ccc2c1 (centres undefined), which Potency is on record?
A: inactive

Q: Which Potency does the source give for CNC(=O)N1C[C@@H](CN(C)C)[C@H](NC(=O)c2cc(C)cc(C)c2)C1 here?
A: inactive

Q: For COc1ccccc1C(=O)N1CCCN(c2cc(-c3ccc(Br)cc3)[nH]n2)CC1, which Potency is on record?
A: inconclusive: 3.98 µM [inhibitor, single point]

Q: Which Potency does the source give for COCCN1C(=O)c2ccccc2C(C(=O)Nc2nc(C)c(C)s2)C12CCCCC2 (centres undefined) here?
A: active: 3.55 µM

Q: Which Potency does the source give for CC(C)NC(=O)CN1C(=O)COc2ccc(S(=O)(=O)N3CCCCCC3)cc21 here?
A: inactive

Q: With COc1cc2cc(CNc3ccc(C)cc3)c(=O)n(CC(=O)Nc3ccc(F)cc3F)c2cc1OC as the compound, how does the Potency read?
A: inconclusive: 8.91 µM [inhibitor, partial curve]

Q: Which Potency does the source give for Cc1cccc(OCC(=O)Nc2ccc(Cl)c(-c3nc4ncccc4o3)c2)c1C here?
A: inconclusive: 3.98 µM [inhibitor, single point]

Q: Which Potency does the source give for CC1(c2ccccc2)N(Cc2ccccc2)C(=O)OC12CCN(C(=O)Cc1ccc(O)cc1)CC2 (centres undefined) here?
A: inconclusive: 8.91 µM [inhibitor, single point]

Q: Which Potency does the source give for Cc1ccc(C2c3[nH]c4ccccc4c3CCN2C(=O)c2cccc(C)c2)cc1 (centres undefined) here?
A: inconclusive: 17.8 µM [inhibitor, single point]

Source: PubChem BioAssay AID1347417 (National Center for Advancing Translational Sciences (NCATS), 2020)
